# Test results reported in PubChem BioAssay AID485344 (National Center for Advancing Translational Sciences (NCATS), 2010).
# Out of some 340,000 compounds screened, about 6,900 (2%) were called active. No stated cut-off is given here; in the data, active means inhibition above about 30%; inactive means below that, where a call was filed. The entries are a selection whose mix differs from that of the whole data set. Entries without a call were filed so in the source. Some compounds were tested as several samples or in several runs, with calls that do not always agree.
# Target: D(2) dopamine receptor (Homo sapiens) (UniProt P14416)
# Test: HTS Assay for Allosteric Antagonists of the Human D2 Dopamine Receptor: Primary Screen for Antagonists; further: 0% is about no effect
# Settings: HEK293 TREx D2 cells, calcium flux, dopamine EC80; at 10 µM; stronger effect = higher value
# Method in brief: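 Calcium mobilization kinetics were recorded at 1 s intervals in tetracycline-induced HEK293 T-REx D2 cells, first for 180 s after compound addition and then 180 s after EC80 dopamine.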
# Chain of UniProt P14416 (P14416 whole entry, looked up): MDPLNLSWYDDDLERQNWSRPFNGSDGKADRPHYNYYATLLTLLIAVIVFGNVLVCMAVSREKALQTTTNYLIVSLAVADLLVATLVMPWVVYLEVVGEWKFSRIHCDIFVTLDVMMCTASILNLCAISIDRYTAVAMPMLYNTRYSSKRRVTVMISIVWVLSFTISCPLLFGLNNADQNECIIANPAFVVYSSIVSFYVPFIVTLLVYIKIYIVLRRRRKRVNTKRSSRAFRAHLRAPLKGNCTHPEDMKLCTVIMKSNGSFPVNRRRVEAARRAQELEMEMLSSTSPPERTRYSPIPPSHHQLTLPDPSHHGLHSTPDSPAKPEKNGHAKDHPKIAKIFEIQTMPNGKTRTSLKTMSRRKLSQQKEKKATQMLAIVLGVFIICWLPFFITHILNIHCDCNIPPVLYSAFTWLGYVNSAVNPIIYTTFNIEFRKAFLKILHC
row,Structure (SMILES),inhibition
1,Cc1cc(Cl)ccc1NC(=O)CN1C(=O)CSc2ccc(S(=O)(=O)N(C)C)cc21,2.56%
2,COc1ccccc1CNC(=O)CCc1c(C)nc2cc(-c3ccccc3OC)nn2c1C,-7.95%
3,COc1ccc(CNC(=O)Cn2ccc3cc(S(=O)(=O)N4CCCCC4)ccc32)c(OC)c1,-3.44%
4,Cc1ccc(NC(=O)CN2CCCN(Cc3ccccc3Cl)S2(=O)=O)c(C)c1,-2.27%
5,CC1CCN(C(=O)CN2C(=O)C(=O)N(C)C2=O)c2ccccc2S1 (stereo not given),active: 44.3%
6,CCOC(=O)c1cnc2cc(C(F)(F)F)ccc2c1N1CCN(c2ccc(F)cc2)CC1,14.1%
7,COc1ccccc1CNC(=O)C1CCCN(c2nn3cc(-c4ccc(F)cc4)nc3s2)C1 (stereo not given),-19.4%
8,Cc1ccc(Cn2ccn(CC(=O)Nc3ccccc3C(F)(F)F)c(=O)c2=O)cc1,-27.8%
9,CCOc1ccc(CCNC(=O)CS(=O)Cc2nc(-c3ccc(C)cc3)oc2C)cc1OCC (stereo not given),16.1%
10,COc1cccc(/C=C/c2nc(C#N)c(N3CCCCC3)o2)c1,2.09%
11,O=C(c1cnc2cc(-c3ccccc3)nn2c1)c1cc([N+](=O)[O-])ccc1O,16.1%
12,CCCn1c(=N)c(C(=O)NCc2cccnc2)cc2c(=O)n3cc(C)ccc3nc21,3.14%
13,CCc1ccc(CSc2nc(-c3ccccc3OC)nc3c2Cc2c(CO)cnc(C)c2O3)cc1,-11.9%
14,CSc1ccc(CCNC(=O)CCc2c(C)nc3c(-c4ccccc4)c(C)nn3c2C)cc1,8.09%
15,Cc1ccccc1Cn1nc(C)c(NC(=O)c2cc(-c3ccc(F)cc3)on2)c1C,13.5%
16,COC(=O)c1ccc2c(=O)n(CCCCCC(=O)NCc3ccccc3)c(=O)[nH]c2c1,-10.7%
17,O=C(c1ccco1)N1CCN(CC(O)COc2ccc(Br)cc2)CC1 (stereo not given),active: 77.2%
18,CCc1ccc(NC(=O)c2cc(-c3cccs3)on2)cc1,-19.7%
19,CCOC(=O)c1c(NC(=O)/C=C/c2ccc(OC)c(OC)c2)sc(C(C)=O)c1C,2.55%
20,O=C(CN1CCSc2ccccc21)N1CCN(c2ccccc2)CC1,10.1%
21,CC(=O)c1ccc(NS(=O)(=O)c2cc3[nH]c(=O)c(=O)[nH]c3cc2C)cc1,22%
22,Cc1ccc(C)c(N2CCN(C(=O)Cn3ncc4c(=O)oc5ccc(C)cc5c43)CC2)c1,-0.872%
23,COc1ccc(S(=O)(=O)NCCc2nnc3ccc(SCC(=O)Nc4ccc(C(F)(F)F)cc4)nn23)cc1,2.24%
24,Cc1ccc(CNC(=O)CN(c2ccc(C(C)C)cc2)S(=O)(=O)c2c(C)n[nH]c2C)cc1,-5.63%

row,Structure (SMILES),inhibition
1,CC(C)(C)CC(=O)Nc1nnc2n1CCS2,8.41%
2,COc1ccc(Cn2ccnc2SCC(=O)Nc2ccc(C)cc2C)cc1,10.6%
3,COc1cccc(NC(=O)CN2CCCN(S(=O)(=O)c3ccc(Br)cc3)CC2)c1,0.498%
4,O=C(COc1ccc(Cl)cc1)Nc1ccccc1C(=O)OCc1cc(=O)n2ccsc2n1,0.383%
5,CCCC(=O)NCC(c1ccc2c(c1)OCO2)N1CCOCC1 (stereo not given),16.9%
6,COc1ccccc1CNC(=O)CN1C(=O)CSc2c1c(C)nn2-c1ccccc1,11.6%
7,O=C(NCCSCc1c(F)cccc1Cl)C1CCN(S(=O)(=O)Cc2ccccc2)CC1,-10.4%
8,c1ccc(-c2ccc(CN3CCN(c4ncccn4)CC3)cc2)cc1,active: 118%
9,Cc1cc(C)c2c(=O)c3c(oc2c1)C(=O)N(Cc1ccc(F)cc1)C3c1cccc(O)c1 (stereo not given),-25.7%
10,CC(C)(C)NC(=O)NC(=O)COC(=O)CCCc1c[nH]c2ccccc12,active: 70%
11,CC1CCN(CCOc2ccc(OCc3ccccc3)cc2)CC1,active: 30.9%
12,Cc1ccc(-c2cc(NC(=O)C(C)Oc3ccc(C)c(C)c3)on2)cc1 (stereo not given),1.45%
13,CC(=O)c1cccc(NC(=O)CCCN2C(=O)COc3ccc(C)cc32)c1,-9.78%
14,CCOc1ccc(C(=O)Nc2nnc(S(=O)(=O)N(CC)c3ccccc3C)s2)cc1,-3.87%
15,O=C(NCCc1ccccc1)c1ccc2c(c1)CCN2S(=O)(=O)c1ccc(Br)cc1,4.9%
16,O=C(CCS(=O)(=O)c1cccs1)Nc1ccc(C(=O)Nc2cccc(Cl)c2)cc1,-6.76%
17,COc1cc(OC)cc(C(=O)N2CCC(c3ccncc3)CC2)c1,6.74%
18,COc1ccc(N2CC(c3nc(-c4cc(OC)c(OC)c(OC)c4)no3)CC2=O)cc1Cl (stereo not given),-5.49%
19,CCNc1nc2c(c(=O)[nH]c(=O)n2C)n1CC(O)COc1ccc(Cl)cc1Cl (stereo not given),-8.17%
20,COc1ccc(CNc2ccc3cc(S(=O)(=O)N4CCCCC4)ccc3n2)cc1,-5.18%
21,Cc1ccc(C)c(NC(=O)CN2C(=O)CSc3nc(C)cc(C)c32)c1,-12.5%
22,O=C(Cc1ccccc1)Nc1c(C(=O)N2CCN(c3ccc(F)cc3)CC2)oc2ccccc12,-12.4%
23,O=C(Nc1ccc(SC(F)F)cc1)c1cc(-c2cccs2)on1,1.99%
24,CC1CCN(C(=O)CN2CCSc3ccccc32)CC1,-2.56%

row,Structure (SMILES),inhibition
1,CC(NC(=O)c1nn(C)c2c1CSc1ccccc1-2)c1ccccc1 (stereo not given),12.3%
2,COc1ccc(OC)c(NC(=O)CSc2nc(-c3ccccc3C)nc3cc(=O)[nH]n23)c1,3.19%
3,COC(=O)c1sc2cccc(F)c2c1S(=O)(=O)N1CCN(c2ccccc2OC)CC1,8.67%
4,CC(C)(C)c1ccc(Oc2nc3ccccn3c(=O)c2/C=C(\C#N)c2nc3ccccc3[nH]2)cc1,-2.9%
5,COc1ccc(CNC(=O)c2ccc3c(c2)N(C)C(=O)C2CCCCN32)cc1OC (stereo not given),13.7%
6,CCN(CC)CCN1C(=O)C(=O)/C(=C(/O)c2ccc(Cl)cc2)C1c1ccncc1 (stereo not given),active: 40.2%
7,O=C(CCC(=O)N1CC2CCCN2c2ccccc21)NCc1ccccc1 (stereo not given),-22.5%
8,Cc1cc(NC(=O)CN2C(=O)N(C)C3(CCCCC3)C2=O)ccc1Br,active: 33.4%
9,CCOC(=O)c1ccc(NC(=O)C2=C(C)Nc3nc(SCc4ccc(Cl)cc4)nn3C2c2ccc(C)cc2)cc1 (stereo not given),6.16%
10,Cc1nn(C(=O)COc2ccccc2)c(C)c1Sc1ccccc1,-0.437%
11,CCOc1ccc(CC(=O)NCCc2csc(-c3ccc(C(F)(F)F)cc3)n2)cc1,1.95%
12,COc1ccc(-c2nc(C(N)=O)c3c(n2)n(-c2ccccc2OC)c(=O)n3C)c(OC)c1,-6.4%
13,COc1cccc(OCC(O)CN2CCN(c3ccccn3)CC2)c1 (stereo not given),active: 91.5%
14,O=C(c1ccc(F)cc1)N1CCC(c2nc3ccccc3o2)CC1,12.6%
15,CC(C)NC(=O)CC(=O)Nc1ccc2nc3n(c(=O)c2c1)CCCCC3,-7.06%
16,O=C(NC1CCCCCC1)c1cc2c(Cl)nc3ccccc3c2s1,-23.1%
17,CCOc1ccccc1NC(=O)C(NS(=O)(=O)c1ccc2c(c1)CCC(=O)N2)c1ccccc1 (stereo not given),18.1%
18,CCOC(=O)c1ccc2c(c1)N(CC(=O)Nc1ccc(C)cc1C)C(=O)c1ccccc1S2,6.31%
19,COc1ccc(NC(=O)c2nnn(Cc3nc(-c4cc(OC)c(OC)c(OC)c4)oc3C)c2C)cc1,19%
20,CCN(CC)C(=O)Cn1cc(SCC(=O)Nc2ccccc2F)c2ccccc21,-9.71%
21,COc1ccc(NC(=O)CN2C(=O)COc3ccc(S(=O)(=O)Nc4ccccc4)cc32)cc1OC,9.57%
22,Cc1c(Cl)cccc1Nc1nn2c(=O)c3ccc(C(=O)NCCc4ccccc4)cc3nc2s1,0.054%
23,CCN(c1cccc(C)c1)S(=O)(=O)c1ccc2c(c1)NC(=O)CCS2,-4.29%
24,O=C(COCc1cc(-c2cccs2)on1)Nc1cccc(Cl)c1Cl,-3.78%

row,Structure (SMILES),inhibition
1,O=C(NC1CC(=O)N(c2ccccc2)C1)c1ccc(Br)o1 (stereo not given),-9.73%
2,Cc1cccc(N(CC(=O)NCCSCc2ccc(Cl)cc2)S(C)(=O)=O)c1C,-0.63%
3,COc1cccc(CNC(=O)C2CCN(c3nn4c(=O)cc(C)nc4s3)CC2)c1,5.01%
4,COc1ccccc1Cn1c(CNS(=O)(=O)c2ccccc2Cl)nc2cccnc21,9.93%
5,CCOc1ccc(NC(=O)c2cc3c(n(-c4ccc(OC)cc4)c2=O)CC(C)(C)CC3=O)cc1,10.6%
6,COc1cc(Br)cc(CN2CCN(c3ncccn3)CC2)c1O,active: 73.9%
7,CCOc1cc(CNC(=O)CCCn2c(=O)c3cccn3c3cccnc32)cc(OCC)c1OCC,5.16%
8,CCc1ccccc1NC(=O)CSc1ncc(S(=O)(=O)c2ccccc2)c(N)n1,-3.79%
9,CC(=O)Nc1cccc(NC(=O)CSc2cn(CC(=O)N(C(C)C)C(C)C)c3ccccc23)c1,3.35%
10,Cc1oc(-c2ccc(Cl)cc2)nc1Cn1c(=O)cc(C)c2c(C)nn(-c3cccc(F)c3)c21,14%
11,Cc1ccc(C(=O)Nc2ccc(C(=O)OCc3cc(=O)n4nc(C5CC5)sc4n3)cc2)cc1,17.3%
12,CCn1cc(C(=O)N2CCN(c3ccc(F)cc3)CC2)c(=O)c2cc(S(=O)(=O)N3CCOCC3)ccc21,-5.38%
13,COc1ccc(N2CCN(c3c4c(nc5nncn35)CCC4)CC2)cc1,5.42%
14,COc1ccc(NC(=O)C(=O)NCC(c2ccc3c(c2)OCO3)N2CCN(C)CC2)cc1 (stereo not given),-26.3%
15,Cc1ccc2c(c1)sc1nc(-c3cc4ccccc4oc3=O)cn12,2.26%
16,CCOC(=O)c1ccccc1NC(=O)CN1C(=O)CC(c2ccco2)Sc2ccccc21 (stereo not given),-2.1%
17,CCc1ccccc1NC(=O)Cn1nnc(-c2nc(-c3ccc(C)cc3)no2)c1N,0.375%
18,Cc1c2cnn(CC(=O)N3CCN(c4ccc(F)cc4)CC3)c(=O)c2c(C)n1Cc1ccccc1F,-5.66%
19,CC(=O)c1ccc(OCC(O)CN2CCN(Cc3ccc4c(c3)OCO4)CC2)cc1 (stereo not given),active: 56.2%
20,CN(C)c1ccc(CNC(=O)Cn2ccc3cc(S(=O)(=O)N4CCCCCC4)ccc32)cc1,2.03%
21,COc1ccc(-c2nc(Cn3c(=O)cc(C)c4c(C)nn(-c5ccccc5)c43)c(C)o2)c(OC)c1,-27.8%
22,Cc1ccc2c(c1)C(c1ccc(F)cc1)N(C(=O)c1cccc(C(F)(F)F)c1)CC(=O)N2 (stereo not given),-2.47%
23,Cc1ccc(-n2nnnc2CNC(=O)c2ccccc2C)cc1C,-1.92%
